Consider 85 compounds from PubChem BioAssay (NCI).

Values joined by “and” are separate entries in the source; they are usually repeats but may differ in a detail not shown here. Equal values may be shown once.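 Interpolation was linear, between the two tested concentrations surrounding the appropriate level; five concentrations were tested over 48 hours in 96-well plates. Here, GI50 denotes the concentration required for 50% inhibition of growth. At the TGI there is no net growth.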 Bounds are passed on as bounds.

For the experiment, the system named is NCI-H322M lung. The experiment can be described thus: NCI anticancer screen, dose series, 48 h.
As to `CCCCC(Sc1cc(Cl)c(C)cc1S(=O)(=O)Nc1n[nH]c(N)n1)C(=O)OC` (stereo unspecified), the TGI was more than 10 µM.
Take `O=[N+]([O-])c1ccc(Sc2ncnc3nc[nH]c23)c2nonc12`: the GI50 is 13.8 µM and the TGI was more than 100 µM.
The matching figures for `COC(=O)[C@]12CC[C@@H](C)[C@H](C)[C@@H]1C1=CC[C@@H]3[C@@]4(C)C(C=O)=C[C@@](C)(COC(C)=O)C4=CC[C@@]3(C)[C@]1(C)CC2`: 7.29 µM and 26.8 µM.
In turn, `CCOC(=O)C(C)NC(=O)C(C)NC(=O)C(C)NC(=O)C(C)NC(=O)C(C)NC(=O)OCc1ccccc1` (stereo unspecified) returned a TGI of more than 100 µM.
Still for that read-out and setting: the value for `COC(CC1(/C=C/O[Si](C(C)C)(C(C)C)C(C)C)C(=O)N(C)c2ccccc21)OC` (stereo unspecified) was more than 100 µM; that for `CCOC(=O)CSC(=O)NCCCl` was more than 100 µM.
Regarding `COc1ccc2c(c1)[nH]c(=O)c1c3cc(OC)ccc3cn21`, the GI50 is 0.178 µM and the TGI stood at 2.11 µM.
Turning to `COc1ccc(C2CC(c3cc(C)ccc3O)=NC(N)=N2)cc1` (stereo unspecified), the TGI is more than 100 µM.
For `COc1ccc2c(c1)[n+](=O)c(C(=O)c1ccco1)c(C(F)(F)F)n2[O-]`, the GI50 was 4.28 µM and the TGI was 21.5 µM.
Turning to `O=C1Nc2c(C(F)(F)F)cccc2[C@@]1(c1ccc(O)cc1)c1ccc(OC(F)(F)F)cc1`, the GI50 is less than 0.01 µM and the TGI is less than 0.01 µM.
As to `NC(=S)N/N=C1\NC(=O)/C(=C/c2ccc3c(c2)OCO3)S1`, the TGI was determined as 83 µM.
On to `Cc1ncc2c(=O)c3c(oc2n1)c1ccccc1n3Cc1ccccc1`, for which the TGI is more than 100 µM.
On the same count and under the same terms, the result for `[O-][n+]1ccccc1S` reads 57 µM.
Regarding `COc1ccc2c(CN3CCC(C(=O)O)CC3)cc3cc4c(cc3c2c1)OCO4`, the GI50 is 2.12 µM and the TGI was 6.8 µM.
As for `COc1ccc(C(=O)c2cc(OC)c(OC)c(OC)c2)cc1/C=C/C(=O)c1ccc(OC)c(OC)c1`, the GI50 was 8.89 µM and the TGI is more than 100 µM.
As for `Nc1nc2c(s1)CCc1c-2c(Br)n(Cc2ccccc2)c1Br`, the GI50 is 19.1 µM and the TGI was found to be 47.3 µM.
Consider `C=C[C@@H]1C[C@]2(C(=O)OC)Cc3nc4ccccc4nc3CC(C(=O)OC)=C2O1`, for which the TGI was more than 100 µM.
`COC(=O)C(=O)C(C(=O)C(=O)Nc1nc2ccc(C)cc2s1)c1nc2ccc([N+](=O)[O-])cc2[nH]c1=O` (stereo unspecified): the TGI was more than 100 µM.
Still for that read-out and setting: the value for `CCCCCCCCCCCCCCCCOCC(Cl)COP(=O)(O)OP(=O)(O)OCC1OC(n2cc(C)c(=O)[nH]c2=O)CC1O` (stereo unspecified) was more than 100 µM; that for `CC(=O)NC(c1nc2cc(C)c(C)cc2[nH]1)c1nc2cc(C)c(C)cc2[nH]1` was more than 100 µM.
`NC(N)=N/N=C/c1c(-c2cc(Cl)sc2Cl)nc2sccn12`: the GI50 is 1 µM and the TGI turned out to be 2.65 µM.
`N#C/C(C(=O)Nc1ccc(Cl)cc1)=C(/N)N1CCCCC1`: the TGI is more than 100 µM.
On the same count and under the same terms, the value for `Cc1ccc(-c2cc(C(F)(F)F)nn2-c2ccc(S(N)(=O)=O)cc2)cc1` was 53.4 µM.
For the compound `O=C(/C(=C\c1ccc([N+](=O)[O-])cc1)S(=O)Cc1ccc(F)cc1)c1ccc(F)cc1` (stereo unspecified), the GI50 was 2.29 µM and the TGI was determined as 6.79 µM.
Turning to `COc1ccc2cc(C(=O)O)ccc2c1OC`, the TGI is more than 100 µM.
Same read-out and setting: the value for `COC(=O)C(CC(C)C)NC(=O)NC12CC3CC(CC(F)(C3)C1)C2` (stereo unspecified) was more than 100 µM; that for `COC1=CCC=C(C[C@@H]2NCCc3cc(OC)c(OC)cc32)C1` was more than 100 µM; that for `CCOC(=O)[C@@]12C[C@](/C=C/OC)(O[Si](C)(C)C)[C@@]13c1cc(OC)c(OC)cc1CCN3C(=O)C2O` (stereo partly specified) was more than 100 µM.
The same measure, in the same setting: the value for `CN(NC(=O)c1cccs1)C1=NCCCCN1` was more than 100 µM; that for `N#Cc1ccccc1NC(=O)C(=O)c1c(O)c2ccccc2oc1=O` was more than 100 µM.
As for `CC1CCC2(C(=O)O)CCC3(C)C(=CCC4C5(C)CCC(O)C(C)(C)C5CCC43C)C2C1C` (stereo unspecified), the GI50 is 6.85 µM and 14 µM; the TGI is 15.9 µM and 30.8 µM.
For `CC1CC[C@@]2(OC1)OC1CC3C4CCC5C[C@@H](OC6OC(CO)C(OC7OC(CO)C(O)C(OC8OC(CO)C(O)C(OC9OC(CO)C(O)C(O)C9O)C8O)C7OC7OC(CO)C(O)C(O)C7O)C(O)C6O)[C@H](O)C[C@]5(C)C4CC[C@]3(C)C1[C@@H]2C` (stereo partly specified), the TGI was more than 80.5 µM.
Compound `CCN(CC)CCNC(=O)c1cc2cc(NC(=O)c3cc4cc(NC(=O)c5cc6cc(N)ccc6[nH]5)ccc4[nH]3)ccc2[nH]1` yielded a TGI of more than 100 µM.
Still for that read-out and setting: the value for `O=CNc1ncn[nH]1` was more than 100 µM; that for `CN(C)CCN=C1Nc2ccccc2C(=S)N2CSCC12` (stereo unspecified) was more than 100 µM; that for `c1ccc(CNCCCCNCCCNCc2ccccc2)cc1` was 50 µM.
Still for that read-out and setting: the result for `O=c1ccn(C2OC(CO)C(O)C2[Se]c2ccccc2)c(=O)[nH]1` (stereo unspecified) reads more than 100 µM.
`Clc1ccc2c(c1)N(c1ncnc3ccc(-c4cnc5[nH]ccc5c4)cc13)CC2`: the GI50 is 5.32 µM and the TGI worked out at 35.4 µM.
Compound `O=C1CCC2CC(C(=O)c3ccccc3)CCC2CN1` (stereo unspecified) (tested in a mixture with another compound) came in with a TGI of more than 100 µM.
The same measure, in the same setting: the result for `N#Cc1c2c(c(N=P(c3ccccc3)(c3ccccc3)c3ccccc3)n3c1nc1ccccc13)CCCC2` reads more than 100 µM; that for `O=C(O)c1ccc(NC(NC(=O)C(C(F)(F)F)C(F)(F)F)(C(F)(F)F)C(F)(F)F)cc1`, more than 100 µM.
Consider `Clc1cccc(Cl)c1C1CSc2ccccc2N=C1c1ccccc1` (stereo unspecified), for which the GI50 was 14.3 µM and the TGI is 32.1 µM.
`O=C(O)C[C@H]1CCCCC12CCOC2=O` (stereo partly specified) came in with a TGI of more than 100 µM.
Same read-out and setting: the value for `COC(=O)C(Cc1cc(OC)c(OC)c(OC)c1)c1ccc(OC)cc1` (stereo unspecified) was more than 100 µM; that for `COc1ccc2[nH]cc([C@@H]3C4CCC(C4)[C@H]3NCc3cccc(CN[C@H]4C5CCC(C5)[C@@H]4c4c[nH]c5ccc(OC)cc45)c3)c2c1` was 2.84 µM and 3.07 µM.
For the compound `COc1ccc2cc(-c3cc4c(oc3=O)-c3ccccc3OC4O)c(=O)oc2c1` (stereo unspecified), the GI50 was 19 µM and the TGI turned out to be 39.4 µM.
For the compound `CC1(C)Cc2c(C#N)c(N)c3c(c2CO1)C(=O)OC3=O`, the TGI was more than 100 µM.
`Cc1ccc(Nc2c(C#N)[n+]([O-])c3cc(Cl)ccc3[n+]2[O-])cc1` gave a TGI of more than 100 µM.
On to `Cc1ccccc1-n1ncc(C(=O)c2ccccc2)c1N`, for which the GI50 is more than 25 µM and the TGI was more than 25 µM.
In the case of `CC1Oc2c(c(=O)oc3ccccc23)[C@@]1(C)CC1C[C@H](C)C(=O)O1` (stereo partly specified), the TGI is more than 100 µM.
Still for that read-out and setting: the result for `C[C@]12CC[C@H](O)C[C@H]1CC[C@@H]1[C@@H]2CC[C@]2(C)[C@@H](C3=CC(=O)OC3)[C@@H](O)C[C@]12O` reads 6.79 µM; that for `CCN1C(=O)C(C)S/C1=N\NC(=O)CSc1nc2ccccc2c(=O)n1CC` (stereo unspecified), more than 100 µM; that for `COc1ccc(/C(O)=C/c2nc3cccnc3nc2/C=C(\O)c2ccc(OC)cc2)cc1`, more than 100 µM.
Regarding `Cc1nc(N/N=C/c2ccccc2Cl)[nH]c(=O)c1CCO`, the TGI was more than 100 µM.
As for `O=C(c1ccccc1)[C@H]1Nc2ccc(Cl)cc2C2c3ccccc3CC21` (stereo partly specified), the TGI was more than 100 µM.
Regarding `CC(=O)OC1CCCn2c1nc1c2C(=O)C(C)=C(N2CC2)C1=O` (stereo unspecified), the TGI was 2.37 µM.
Same read-out and setting: the value for `NNC(=O)CNC(=O)c1ccc(Cl)cc1Cl` was more than 100 µM.
With `CC1COc2c(N3CCN(C)CC3)c(F)cc3c(=O)c(C(=O)O)cn1c23` (stereo unspecified), the GI50 is more than 100 µM and the TGI was more than 100 µM.
`O=C1NC(=O)C2(CCCCCC2)N1` returned a TGI of more than 100 µM.
`COc1cc2cccc(N)c2cc1OC` had a TGI of more than 100 µM.
With `Cc1ccc2ncnc(N(CC(C)C)CC(C)C)c2c1`, the GI50 was 19.4 µM and the TGI is 35.1 µM.
`CCOC(=O)c1cnc2n(c1=N)[C@H]1CCCC[C@@H]1N2`: the TGI is more than 100 µM.
Turning to `CC(=O)Nc1cc(N(CCOS(C)(=O)=O)CCOS(C)(=O)=O)ccc1N=O`, the TGI was more than 100 µM.
On to `NC(=O)CCC(N=C(N)c1csc(C2OC(CO)C(O)C2O)n1)C(=O)O` (stereo unspecified), for which the TGI is more than 100 µM.
`C[C@H](Nc1ncnc2nc[nH]c12)c1cc2ccc(F)cc2nc1-c1ccccn1`: the GI50 was 59 µM and the TGI was more than 100 µM.
The compound `O=C(c1ccccc1)N1C2CCC1C(C(F)(F)F)=C2C(F)(F)F` returned a TGI of more than 100 µM.
In turn, `Cc1oc2c(Cl)cc(O)c(Cl)c2c2cccc1-2` registered a TGI of more than 100 µM.
Still for that read-out and setting: the result for `CC(=O)O[C@H]1/C(=C/c2ccncc2)C[C@H]2[C@@H]3CC=C4C[C@@H](N5CCCC5)CC[C@]4(C)[C@H]3CC[C@]12C` reads 26 µM.
`CCOC(=O)CSc1nnc2cc(CN3CCCC3)c(-c3ccc(Cl)cc3)nn12` showed a TGI of 76.1 µM.
Consider `O=C1c2nsnc2C(=O)c2c(F)c(F)c(F)c(F)c21`, for which the GI50 is 2.97 µM and the TGI worked out at 8.19 µM.
`CN(C)S(=O)(=O)/N=C/c1cccc(/C=N/S(=O)(=O)N(C)C)c1` returned a TGI of more than 100 µM.
As for `CC[P+](C)(C)c1ccccc1`, the TGI was more than 100 µM.
In turn, `OC1CCOc2ccccc21` (stereo unspecified) registered a TGI of more than 100 µM.
On to `O=C(O)CCc1ccc2c(c1)C(=O)CC2`, for which the TGI was more than 100 µM.
As for `O=C(CSc1nc2[nH]ncc2c(=O)[nH]1)c1ccc(Cl)cc1`, the TGI was more than 100 µM.
Regarding `CN(C)CCNC(=O)C(C)(C)Oc1ccc(C(=O)c2ccc(Cl)cc2)cc1Cl`, the TGI came to 24.3 µM.
Turning to `CCCCCCCCCCCCCC1=NCCN1CCO`, the GI50 was 5.55 µM and the TGI came to 20.8 µM.
The matching figures for `CN(Cc1cc(Br)cc(Br)c1O)Cc1cc(Br)cc(Br)c1O`: 1.15 µM and 19.1 µM.
As to `Cc1ccc(S(=O)(=O)N2CCSCCN(S(=O)(=O)c3ccc(C)cc3)CCN(S(=O)(=O)c3ccc(C)cc3)CC2)cc1`, the TGI was more than 100 µM.
`CC(=O)NC1=C(NCCN(C)C)C(=O)c2ccccc2C1=O`: the TGI is more than 50 µM.
On the same count and under the same terms, the result for `CCC(=O)c1ccc2[nH]c3c(C)c4c(=O)cc(C)[nH]c4c(C)c3c2c1` reads more than 100 µM; that for `CC1C[C@H](C)CC(C(O)CC2CC(=O)N(Cc3ccccc3)C(=O)C2)C1O` (stereo partly specified), more than 100 µM; that for `c1ccc([P+](Cc2ccccc2C[P+](c2ccccc2)(c2ccccc2)c2ccccc2)(c2ccccc2)c2ccccc2)cc1`, more than 100 µM.
Consider `COC(=O)C(C(=O)C(=O)Nc1nc(=S)[nH][nH]1)c1csc(-n2nc(-c3ccccc3)cc2-c2ccccc2)n1` (stereo unspecified), for which the TGI was more than 100 µM.
Still for that read-out and setting: the value for `CNC(=O)OCc1c2ccncc2c(C)c2c1[nH]c1ccccc12` was 1.56 µM.
